B1: h1830-S12 (bispecific antibody, human IgG4 S228P, kappa)
heavy: QVQLQESGPGLVKPSQTLSLTCTVSGGSISDGSAYWSWIRQHPGKGLEYIGFISRAGSTYNTPSLKGRVTISRDTSKNQFSLKLSSVTAADTAVYYCARSGGWLAPFDYWGRGTLVTVSSASTKGPSVFPLAPCSRSTSESTAALGCLVKDYFPEPVTVSWNSGALTSGVHTFPAVLQSSGLYSLSSVVTVPSSSLGTKTYTCNVDHKPSNTKVDKRV[human IgG4 Fc with S228P (EU numbers) not given here]GGGGSGGGGSGGGGGGEEELQMIQPEKLLLVTVGETATLHCTVTSLLPVGPVLWFRGVGPGRELIYVSGRGHFPRVTTVSDLTKRENKDFSIRISSITPADVGTYYCVKFRKGSPEDVEFKSGPGTEMALGAKPS
light: DIVMTQSPDSLAVSLGERATINCKSSQSLFYHSNQKHSLAWYQQKPGQPPKLLIYGASTRESGVPDRFSGSGSGTDFTLTISSLQAEDVAVYYCQQYYGYPYTFGGGTKVEIKRTVAAPSVFIFPPSDEQLKSGTASVVCLLNNFYPREAKVQWKVDNALQSGNSQESVTEQDSKDSTYSLSSTLTLSKADYEKHKVYACEVTHQGLSSPVTKSFNRGEC
notes: h1830 IgG4 with SIRPγ variant S12, GS16 linker; also called PD-L1-CD47 bifunctional fusion protein
B2: h1830-S49 (bispecific antibody, human IgG4 S228P, kappa)
heavy: QVQLQESGPGLVKPSQTLSLTCTVSGGSISDGSAYWSWIRQHPGKGLEYIGFISRAGSTYNTPSLKGRVTISRDTSKNQFSLKLSSVTAADTAVYYCARSGGWLAPFDYWGRGTLVTVSSASTKGPSVFPLAPCSRSTSESTAALGCLVKDYFPEPVTVSWNSGALTSGVHTFPAVLQSSGLYSLSSVVTVPSSSLGTKTYTCNVDHKPSNTKVDKRV[human IgG4 Fc with S228P (EU numbers) not given here]GGGGSGGGGSGGGGGGEEELQMIQPEKLLLVTVGETATLHCTVTSLLPVGPVLWFRGVGPGRELIYRSGRGHFPRVTTVSDLTKRENKDFSIRISSITPADVGTYYCVKFRKGSPEDVEFKSGPGTEMALGAKPS
light: B1 light
notes: h1830 IgG4 with SIRPγ variant S49, GS16 linker
B3: h1830-S46 (bispecific antibody, human IgG4 S228P, kappa)
heavy: QVQLQESGPGLVKPSQTLSLTCTVSGGSISDGSAYWSWIRQHPGKGLEYIGFISRAGSTYNTPSLKGRVTISRDTSKNQFSLKLSSVTAADTAVYYCARSGGWLAPFDYWGRGTLVTVSSASTKGPSVFPLAPCSRSTSESTAALGCLVKDYFPEPVTVSWNSGALTSGVHTFPAVLQSSGLYSLSSVVTVPSSSLGTKTYTCNVDHKPSNTKVDKRV[human IgG4 Fc with S228P (EU numbers) not given here]GGGGSGGGGSGGGGGGEEELQMIQPEKLLLVTVGETATLHCTVTSLLPVGPVLWFRGVGPGRELIYMSGRGHFPRVTTVSDLTKRENKDFSIRISSITPADVGTYYCVKFRKGSPEDVEFKSGPGTEMALGAKPS
light: B1 light
notes: h1830 IgG4 with SIRPγ variant S46, GS16 linker
B4: h1830-S47 (bispecific antibody, human IgG4 S228P, kappa)
heavy: QVQLQESGPGLVKPSQTLSLTCTVSGGSISDGSAYWSWIRQHPGKGLEYIGFISRAGSTYNTPSLKGRVTISRDTSKNQFSLKLSSVTAADTAVYYCARSGGWLAPFDYWGRGTLVTVSSASTKGPSVFPLAPCSRSTSESTAALGCLVKDYFPEPVTVSWNSGALTSGVHTFPAVLQSSGLYSLSSVVTVPSSSLGTKTYTCNVDHKPSNTKVDKRV[human IgG4 Fc with S228P (EU numbers) not given here]GGGGSGGGGSGGGGGGEEELQMIQPEKLLLVTVGETATLHCTVTSLLPVGPVLWFRGVGPGRELIYMSGRGHFPRVTTVSDLTKRENKDFSIRISSITPADVGTYYCVKFRKGSPEDVEFKSGPGTEVALGAKPS
light: B1 light
notes: h1830 IgG4 with SIRPγ variant S47, GS16 linker
B5: h1830-S48 (bispecific antibody, human IgG4 S228P, kappa)
heavy: QVQLQESGPGLVKPSQTLSLTCTVSGGSISDGSAYWSWIRQHPGKGLEYIGFISRAGSTYNTPSLKGRVTISRDTSKNQFSLKLSSVTAADTAVYYCARSGGWLAPFDYWGRGTLVTVSSASTKGPSVFPLAPCSRSTSESTAALGCLVKDYFPEPVTVSWNSGALTSGVHTFPAVLQSSGLYSLSSVVTVPSSSLGTKTYTCNVDHKPSNTKVDKRV[human IgG4 Fc with S228P (EU numbers) not given here]GGGGSGGGGSGGGGGGEEELQMIQPEKLLLVTVGETATLHCTVTSLLPVGPVLWFRGVGPGRELIYRSGRGHFPRVTTVSDLTKRNNKDFSIRISSITPADVGTYYCVKFRKGSPEDVEFKSGPGTEMALGAKPS
light: B1 light
notes: h1830 IgG4 with SIRPγ variant S48, GS16 linker
B6: h1830-S79 (bispecific antibody, human IgG4 S228P, kappa)
heavy: QVQLQESGPGLVKPSQTLSLTCTVSGGSISDGSAYWSWIRQHPGKGLEYIGFISRAGSTYNTPSLKGRVTISRDTSKNQFSLKLSSVTAADTAVYYCARSGGWLAPFDYWGRGTLVTVSSASTKGPSVFPLAPCSRSTSESTAALGCLVKDYFPEPVTVSWNSGALTSGVHTFPAVLQSSGLYSLSSVVTVPSSSLGTKTYTCNVDHKPSNTKVDKRV[human IgG4 Fc with S228P (EU numbers) not given here]GGGGSGGGGSGGGGGGEEELQMIQPEKLLLVTVGETATLHCTVTSLWPVGPVLWFRGVGPGRELIYRTGTGRFPRVTTVSDLTKRNNMDFSIRISSITPADVGTYYCVKFRKGSPEDVEFKSGPGTEVALGAKPS
light: B1 light
notes: h1830 IgG4 with SIRPγ variant S79, GS16 linker; also called PD-L1-CD47 bifunctional fusion protein

What follows are binders tested against T1, PD-L1-Fc (prepared in-house) (human, UniProt Q9NZQ7 part only, limits assumed) (assay: blocking ELISA, PD-L1-Fc coated, competitor biotin-labeled PD-1).
T1 construct: Prepared in-house; also called human PD-L1-Fc; not shown: Fc

IC50	Binder
0.0429 µg/mL	B1

What follows are binders tested against T2, Human CD47-his (CD47-ECD-His) (human, UniProt Q08722 part only, limits assumed) (assay: SPR (Biacore T200), binder captured on Protein A chip, antigen in flow).
T2 construct: also called hCD47; free human CD47 protein

Kd	Binder
3.09 nM	B2
1.77 nM	B3
1.94 nM	B4
2.49 nM	B5

Each binder was assayed against T3, Cyno PD-L1-His (cyno, UniProt G7PSE7 19-239) (assay: ELISA, PD-L1-his coated on plate).
T3 construct: Bought; not shown: His tag

EC50	Binder
0.178 µg/mL	B1

The binders below were run against T4, mPD-L1 (mouse, UniProt Q9EP73 part only) (assay: ELISA, PD-L1-his coated on plate).
T4 construct: Bought; also called Mouse PD-L1-his; Mouse PD-L1

EC50	Binder
0.0343 µg/mL	B1

What follows are binders tested against T5, hPD-L1-His (human, UniProt Q9NZQ7 part only) (assay: ELISA, PD-L1-his coated on plate).
T5 construct: Bought; also called Human PD-L1-his; Human PD-L1; not shown: His tag

EC50	Binder
0.146 µg/mL	B1

What follows are binders tested against T3, Cyno PD-L1-His (assay: SPR (Biacore T200), binder captured on Protein A chip, antigen in flow).
T3 sequence (G7PSE7 entry or part of it): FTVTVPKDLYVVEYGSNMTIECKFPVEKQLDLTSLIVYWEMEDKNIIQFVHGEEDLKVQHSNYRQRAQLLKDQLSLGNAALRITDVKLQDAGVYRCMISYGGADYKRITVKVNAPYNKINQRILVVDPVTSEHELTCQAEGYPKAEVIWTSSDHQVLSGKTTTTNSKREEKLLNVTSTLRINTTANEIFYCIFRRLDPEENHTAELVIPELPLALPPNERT

Kd	Binder
0.455 nM	B6
0.429 nM	B1

Target: T2, Human CD47-his (CD47-ECD-His)
T2 sequence (Q08722 19-139 limits assumed): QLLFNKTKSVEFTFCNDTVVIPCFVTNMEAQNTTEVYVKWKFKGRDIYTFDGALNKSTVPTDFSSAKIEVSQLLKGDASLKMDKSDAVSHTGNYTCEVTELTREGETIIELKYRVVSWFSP
Assay: as above
Remark: another data set of the same source

Kd	Binder
4.06 nM	B6
4.36 nM	B1

What follows are binders tested against T4, mPD-L1 in the same assay as above.
T4 sequence (Q9EP73 19-238 limits assumed): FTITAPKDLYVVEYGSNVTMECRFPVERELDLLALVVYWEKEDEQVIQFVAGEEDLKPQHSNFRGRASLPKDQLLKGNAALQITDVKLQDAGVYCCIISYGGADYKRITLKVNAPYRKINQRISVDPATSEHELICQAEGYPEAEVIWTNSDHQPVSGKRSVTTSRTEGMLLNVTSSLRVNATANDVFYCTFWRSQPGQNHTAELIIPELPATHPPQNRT

Kd	Binder
77.5 nM	B6
69.8 nM	B1

Each binder was assayed against T6, Cyno CD47-his (cyno, UniProt A0A2K5X523 19-139) in the same assay as above.
T6 construct: extracellular domain; not shown: His tag

Kd	Binder
4.9 nM	B6
5.11 nM	B1

Each binder was assayed against T5, hPD-L1-His in the same assay as above.
T5 sequence (Q9NZQ7 19-239 limits assumed): as the sequence (G7PSE7 entry or part of it) above, with T33A, S34A, N62S, Q68R, R82Q, L173F, A185T, I192T, L215H counted along it

Kd	Binder
0.425 nM	B6
0.4 nM	B1

Each binder was assayed against T2, Human CD47-his (CD47-ECD-His) (assay: ELISA, CD47-his coated on plate).

EC50	Binder
0.0511 µg/mL	B1

The binders below were run against T6, Cyno CD47-his (assay: ELISA, CD47-his coated on plate).

EC50	Binder
0.0789 µg/mL	B1

These binders were tested against T1, PD-L1-Fc (prepared in-house) (assay: blocking ELISA, PD-L1-Fc coated, competitor biotin-labeled B7-1).
T1 sequence (Q9NZQ7 19-238 limits assumed): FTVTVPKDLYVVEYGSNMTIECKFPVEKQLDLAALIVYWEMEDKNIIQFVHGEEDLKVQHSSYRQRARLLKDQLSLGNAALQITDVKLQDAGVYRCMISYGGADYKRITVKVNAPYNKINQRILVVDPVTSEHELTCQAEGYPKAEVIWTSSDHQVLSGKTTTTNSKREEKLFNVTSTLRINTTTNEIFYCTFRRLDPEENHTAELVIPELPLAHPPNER

IC50	Binder
0.0304 µg/mL	B1

— patent US20230012428A1 (JIANGSU HENGRUI MEDICINE, published 2023)
